Among all 370,000 compounds or so, about 150 (0.041%) were called active. Inconclusive means that the source gave no clear call. Such entries were picked first, then a sample of the others. Calls follow the shape of the dose curve; as a rule, active = well fitted inhibition curve with a large enough effect; inconclusive = small, poorly fitted or top-dose-only effect; inactive = flat fitted curve, though single readings scatter. Potencies of inconclusive entries are left out as doubtful fits.
Target: Beta-lactamase (Escherichia coli (strain K12)) (UniProt P00811)
Assay: qHTS Inhibitors of AmpC Beta-Lactamase (assay with detergent); also: nearly all actives have a fitted effect of over 25% in size;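 as to activity change, negative = inhibition: 0% = no-compound wells and -100% = no-enzyme wells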
Conditions: AmpC hydrolysis of nitrocefin, absorbance 480 nm, 0.01% Triton; activity change, negative = inhibition: at 114 µM (top of the series)
How it was run: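 20 mM phosphate pH 7.0 + 0.01% (detergent screen) or 0.0001% Triton X-100; 5.3 nM AmpC reagent; cpd preinc 15 min RT; nitrocefin (800 uM stock) to start; A480 q20 s × 4 min; Activity was normalised to no-enzyme and no-compound control wells.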
Potency is read from the fitted curve at half-maximal effect; tags tell the direction and shape of the fitted curve.

Chain of UniProt P00811 (P00811 whole entry, looked up): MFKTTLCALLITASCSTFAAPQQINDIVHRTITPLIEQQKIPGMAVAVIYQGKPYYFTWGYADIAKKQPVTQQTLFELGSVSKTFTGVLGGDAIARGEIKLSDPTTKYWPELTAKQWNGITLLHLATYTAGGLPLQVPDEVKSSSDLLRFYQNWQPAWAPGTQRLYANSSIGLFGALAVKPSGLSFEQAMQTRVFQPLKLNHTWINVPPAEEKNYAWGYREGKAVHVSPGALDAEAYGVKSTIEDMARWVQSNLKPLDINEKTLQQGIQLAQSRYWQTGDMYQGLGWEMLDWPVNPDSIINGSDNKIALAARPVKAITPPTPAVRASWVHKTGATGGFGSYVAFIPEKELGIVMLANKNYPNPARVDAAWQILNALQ

Row | SMILES | Potency | activity change, negative = inhibition
1 | CC(C)(C)Cc1nc(-c2ccc(Cl)cc2)no1 | inconclusive [inhibitor, single point] | 
2 | CCOC(=O)c1ccc(NC(=O)CNC(=O)C23CC4CC(CC(C4)C2)C3)cc1 |  | inactive: -5.44%
3 | Cc1ccc2c(c1)[nH]c1c(N3CCN(Cc4ccc5c(c4)OCO5)CC3)ncnc12 |  | inactive: -12.5%
4 | CCOC(=O)c1ccc(NC(=O)c2cc3c(C)nn(-c4ccccc4Cl)c3s2)s1 | inconclusive [inhibitor, full curve, poor fit] | 
5 | COC(=O)N(NC(=O)C(O)(CCC(C)C)CCC(C)C)c1ccccc1 | inconclusive [inhibitor, full curve, poor fit] | 
6 | O=C(NNc1cccc(Cl)n1)Nc1ccccc1 | inconclusive [inhibitor, partial curve, poor fit] | 
7 | CCC(=O)Nc1ccc(C(=O)c2ccccc2)cc1 | inconclusive [inhibitor, full curve, poor fit] | 
8 | O=C(COC(=O)C1CCN(C(=O)c2ccc(Cl)cc2)CC1)c1ccco1 | inconclusive [inhibitor, partial curve, poor fit] | 
9 | CCOc1cc(C(=O)Nc2ncn[nH]2)cc(OCC)c1OCC | inconclusive [inhibitor, full curve, poor fit] | 
10 | O=C(CN1C(=O)NC2(CCCC2)C1=O)OCc1c(F)cccc1Cl | inconclusive [inhibitor, partial curve] | 
11 | CCN(CC(O)Cn1c2ccccc2c2ccccc21)S(=O)(=O)c1ccc(F)cc1 (stereo not drawn) | inconclusive [inhibitor, partial curve, poor fit] | 
12 | CC1=C(C(=O)OC(C)C)C(C)NC(=O)N1 (stereo not drawn) |  | inactive: -14.5%
13 | Cc1ccccc1CSc1nnc(-c2cccnc2)n1N | inconclusive [inhibitor, full curve, poor fit] | 
14 | CCOC(=O)c1csc(COc2ccccc2Cl)n1 |  | inactive: 3.29%
15 | COC(=O)Nc1snnc1C | inconclusive [inhibitor, partial curve] | 
16 | NCc1ccc(-c2nc3ccccc3o2)cc1 | inconclusive [inhibitor, partial curve] | 
17 | CN(Cc1ccccc1)C(=S)NC(=O)c1ccccc1 |  | inactive: -6.17%
18 | CC(=O)Nc1ccc(S(=O)(=O)NCc2ccc3[nH]c(C)cc3c2)cc1 | inconclusive [inhibitor, full curve, poor fit] | 
19 | COc1ccc(CCN2CCC(CNC(=O)c3cnn(-c4ccc(C)cc4)c3C3CCN(C(=O)OC(C)(C)C)CC3)CC2)cc1 |  | inactive: 4.29%
20 | COc1cccc(C(=O)Nc2nc3ccccc3[nH]2)c1 |  | inactive: -15.6%
21 | O=C(Nc1ccc2cccnc2c1)c1ccc(Br)cc1 | inconclusive [inhibitor, full curve, poor fit] | 
22 | Cc1ccc(OCc2ccc(Br)cc2)c([N+](=O)[O-])n1 |  | inactive: -0.154%

Row | SMILES | Potency | activity change, negative = inhibition
23 | COc1ccccc1-n1nc(-c2ccccc2)c2cnc3c(F)cc(F)cc3c21 |  | inactive: -9.7%
24 | Cc1nc(Oc2ccc(Cl)cc2)c2oc3ccccc3c2n1 | inconclusive [inhibitor, partial curve, poor fit] | 
25 | Cc1cc(C)cc(NC(=O)C(OC(=O)c2cc[n+]([O-])cc2)c2ccccc2)c1 (stereo not drawn) | inconclusive [inhibitor, full curve, poor fit] | 
26 | Cc1ccc(N2C(=O)N(CC(=O)Nc3ccc(C)cc3Cl)C(=O)C2C)cc1 (stereo not drawn) | inconclusive [inhibitor, partial curve, poor fit] | 
27 | CC(C)CCN(C(=O)CNC(=O)c1cccs1)C(C(=O)NC1CCCCC1)c1cccnc1 (stereo not drawn) |  | inactive: 5.26%
28 | CCCC1=[N+](CC(=O)c2ccccc2)CCn2c(C)ccc21 |  | inactive: 0.708%
29 | Cc1onc(-c2ccccc2Cl)c1C(=O)NC1CCS(=O)(=O)C1 (stereo not drawn) | inconclusive [inhibitor, full curve] | 
30 | COc1cc(OC)cc(C(=O)NCC(=O)NC(C)CCc2ccccc2)c1 (stereo not drawn) | inconclusive [inhibitor, partial curve, poor fit] | 
31 | COc1ccc(NS(=O)(=O)c2cccc(C(=O)NNC(=O)c3ccc(Br)o3)c2)cc1 | inconclusive [inhibitor, full curve] | 
32 | O=C(c1ccc([N+](=O)[O-])cc1)n1nc(-c2ccccc2)nc1NCc1ccc(F)cc1 | inconclusive [inhibitor, single point] | 
33 | COc1cc(C(=O)OCC(=O)N2CCN(C(C)=O)CC2)ccc1OCC(C)C | inconclusive [inhibitor, full curve, poor fit] | 
34 | COCC(C)n1c(-c2ccc3c(c2)NC(=O)CO3)csc1=Nc1ccc(OC(F)F)cc1 (stereo not drawn) | inconclusive [inhibitor, full curve, poor fit] | 
35 | O=C(CCN1CCCCC1)Nc1ccc(Br)cc1 | inconclusive [inhibitor, single point] | 
36 | O=C1c2ccccc2NC2(CCCCC2)N1c1ccc(O)cc1 | inconclusive [inhibitor, full curve, poor fit] | 
37 | COC(=O)c1cc(S(=O)(=O)Nc2cc(OC)cc(OC)c2)c[nH]1 | inconclusive [inhibitor, partial curve] | 
38 | COc1ccc(S(=O)(=O)c2c(O)c(C)cc(NS(=O)(=O)c3ccc(Cl)cc3)c2C(C)C)cc1 |  | inactive: 4.02%
39 | O=P(Cc1cccc[n+]1[O-])(c1ccccc1)c1ccccc1 | inconclusive [inhibitor, full curve] | 
40 | CCOC(=O)c1cncn1[C@@H](C)c1ccccc1 | inconclusive [inhibitor, full curve, poor fit] | 
41 | O=C1c2ccccc2C(=O)N1CC(O)CNc1ccc(Br)cc1 (stereo not drawn) | inconclusive [inhibitor, single point] | 
42 | CCNc1oc(COc2cccc(C)c2)nc1C#N | inconclusive [inhibitor, full curve, poor fit] | 
43 | COc1cc(OC)cc(C(=O)NCC(=O)N2CCC(C)CC2)c1 | inconclusive [inhibitor, full curve, poor fit] | 
